Experimental data from the RNAGym collection of RNA variant scans (doi:10.1093/nar/gkz1192).
The source gives no read counts; variants with many changes may rest on few reads.

B1: CPEB3 Ribozyme (parent)
chain: UAACAGGGGGCCACAGCAGAAGCGUUCACGUCGCAGCCCCUGUCAGAUUCUGGUGAAUCUGCGAAUUCUGCUGUAUAUCUC

Variants of: B1
Test: self-cleavage, relative activity (ratio to wild type); higher = more cleavage; in vitro, sequencing
Procedure, shortened: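 After error-prone PCR and barcoding, CPEB3 ribozyme mutant libraries were transcribed with T7 RNA polymerase at 37°C for 5 hours, then given 15 min with DNase I before an EDTA stop, and they cleaved during both steps. Reverse transcription with template switching preceded Illumina sequencing. Relative activity divides a variant's cleaved/total read fraction by the unmutated ribozyme's. At least 5 reads were required per variant, and three batches were averaged.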
In the case of UAACAGGGGGCCACAGCAGAAGCGCUCACGUCGCAGCCCCUGUCAGAUUCUGGUGAGUCUGCGAAUUCUGCUGUGUAUCUC [U25C A57G A75G], the self-cleavage is reported as 0.05. Variant UAACAGGGGGCCACAGCAGAAGCGCUCACGUCGCAGCCCCUGUCAGAUUCUGGUGAGUCUGCGAACUCUGCUGUAUAUCUC [U25C A57G U66C] has a self-cleavage of 0.15. For UAACAGGGGGCCACAGCAGAAGCGCUCACGUCGCAGCCCCUGUCAGAUUCUGGUGAGUCUGCGAAUUCCGCUGUAUAUCUC [U25C A57G U69C], the self-cleavage was 0.12. Variant UAACAGGGGGCCACAGCAGAAGCGCUCACGUCGCAGCCCCUGUCAGAUUCUGGUGAUUCUGCUAAUCCUGCUGUAUAUCCC [U25C A57U G63U U67C U80C] has a self-cleavage of 0.04. Variant UAACAGGGGGCCACAGCAGAAGCGCUCACGUCGCAGCCCCUGUCAGAUUCUGGUGAUUCUGCGAAUUCUGCUGUAUACCUC [U25C A57U U78C] has a self-cleavage of 0.28. Variant UAACAGGGGGCCACAGCAGAAGCGCUCACGUCGCAGCCCCUGUCAGAUUCUGGUGAAUCUGCGGAUCCUGCCGUCUAUCUC [U25C A64G U67C U72C A75C] has a self-cleavage of 0.08. In the case of UAACAGGGGGCCACAGCAGAAGCGCUCACGUCGCAGCCCCUGUCAGAUUCUGGUGAAUCUGCGGAUUCAGCUGCAUAUCUC [U25C A64G U69A U74C], the self-cleavage is reported as 0.06. UAACAGGGGGCCACAGCAGAAGCGCUCACGUCGCAGCCCCUGUCAGAUUCUGGUGAAUCUGCGUAUUCCGCUGUAUAUAUC [U25C A64U U69C C79A] showed a self-cleavage of 0.08. In the case of UAACAGGGGGCCACAGCAGAAGCGCUCACGUCGCAGCCCCUGUCAGAUUCUGGUGAAUCUGCGUAUUCGGCUGUAUAUCUC [U25C A64U U69G], the self-cleavage is reported as 0.16. UAACAGGGGGCCACAGCAGAAGCGCUCACGUCGCAGCCCCUGUCAGAUUCUGGUGAAUCUGCGACUUCUGCUGUAUAUCCC [U25C A65C U80C] gave a self-cleavage of 0.14. With UAACAGGGGGCCACAGCAGAAGCGCUCACGUCGCAGCCCCUGUCAGAUUCUGGUGAAUCUGCGAGUUCUGCUGUAAUUCUC [U25C A65G U76A A77U] the self-cleavage was 0.04. With UAACAGGGGGCCACAGCAGAAGCGCUCACGUCGCAGCCCCUGUCAGAUUCUGGUGAAUCUGCGAAUUCUGCUGUAUUUAUC [U25C A77U C79A] the self-cleavage was 0.1. UAACAGGGGGCCACAGCAGAAGCGCUAACGUCGCAGCCCCUGUCAGAUCCUGGUGAAUCUGCGAAUUCUGCUGUAUAUCUC [U25C C27A U49C] gave a self-cleavage of 0.14. Work on UAACAGGGGGCCACAGCAGAAGCGCUCAAGUCGCAGCCCCUGUCAGAUUCUGGUGAGUCUGCGAACUCUGCUGUAUAUCUC [U25C C29A A57G U66C] yielded a self-cleavage of 0.25. UAACAGGGGGCCACAGCAGAAGCGCUCAAGUCGCAGCCCCUGUCAGAUUCUGGUGAAUCUGCGGACUCUGCUGUAUAUCUC [U25C C29A A64G U66C] showed a self-cleavage of 0.14. In the case of UAACAGGGGGCCACAGCAGAAGCGCUCAAGUCGCAGCCCGUGUCAGAUUCUGGUGAAUCUGCGAAUUCUGUUGUAUAUCUC [U25C C29A C40G C71U], the self-cleavage is reported as 0.1. UAACAGGGGGCCACAGCAGAAGCGCUCAGGUCGCGGCCCCUGUCAGACUCUGGUGAAUCUGCGAAUUCUGCAGUAUAUCUC [U25C C29G A35G U48C U72A] gave a self-cleavage of 0.07. Variant UAACAGGGGGCCACAGCAGAAGCGCUCAGGCCGCAGCCCCUGUCAGAUUCUAGUGAAUCUGCGAAUUCUGCUGUAUAUCCC [U25C C29G U31C G52A U80C] has a self-cleavage of 0.14. Work on UAACAGGGGGCCACAGCAGAAGCGCUCAGGCCGCAGCCCCAGUCUGAUUCUGGUGAGUCUGCGAAUUCUGCUGAAUAUCUC [U25C C29G U31C U41A A45U A57G U74A] yielded a self-cleavage of 0.03. UAACAGGGGGCCACAGCAGAAGCGCUCAUGACGCAGCCCCUGUCAGAUUCUGGUGAAUCUGCGAAUCCUGCUGUAUAUCUC [U25C C29U U31A U67C] showed a self-cleavage of 0.1. Variant UAACAGGGGGCCACAGCAGAAGCGCUCAUGUCGCAGCCCCUGUCAGAUUCUGGUGAACCUGCGAAUUCUGCUGUACAUCUC [U25C C29U U58C U76C] has a self-cleavage of 0.16. Variant UAACAGGGGGCCACAGCAGAAGCGCUCACGUAGCAGCCCCUGUCAGAUUCUGGUGAAUCUGCGAAUUCUGCUGUUUAUCUC [U25C C32A A75U] has a self-cleavage of 0.2. UAACAGGGGGCCACAGCAGAAGCGCUCACGUAGCAGCCCCAGUCAGAUUCAGGUGAAUCUGCGUAUUCUGCUGUAUAUCUC [U25C C32A U41A U51A A64U] gave a self-cleavage of 0.16. Variant UAACAGGGGGCCACAGCAGAAGCGCUCACGUAGCAGCCCCUGUCAGAUUCCGGUGAAUCUGCGAAUUCUGCUGUAUAUCUC [U25C C32A U51C] has a self-cleavage of 0.18. UAACAGGGGGCCACAGCAGAAGCGCUCACGUAGCAGCCCCUGUCAGAUUCCGGUGAAUCUGCGAAUUCUGCUGAAUAUCUC [U25C C32A U51C U74A] gave a self-cleavage of 0.31. UAACAGGGGGCCACAGCAGAAGCGCUCACGUAGCAGCCCCUGUCAGAUUCUGGCGAAUCUGCGAAUUCUGCUGUUUAUCUC [U25C C32A U54C A75U] showed a self-cleavage of 0.2. Variant UAACAGGGGGCCACAGCAGAAGCGCUCACGUUGCAGCCCCUGUCGGAUUCAGGUGAAUCUUCGAAUUCUGCGGUAUAUCUC [U25C C32U A45G U51A G61U U72G] has a self-cleavage of 0.2. For UAACAGGGGGCCACAGCAGAAGCGCUCACGUUGCAGCCCCUGUCAGAUUCUGGUGACUCUGCGAAUUCUGCUGUAUAUCUC [U25C C32U A57C], the self-cleavage was 0.12. For UAACAGGGGGCCACAGCAGAAGCGCUCACGUUGCAGCACCUGUCAGAUUCUGGUGAAUCUGCGUAUUCUGCUGUAUAUCUC [U25C C32U C38A A64U], the self-cleavage was 0.11. For UAACAGGGGGCCACAGCAGAAGCGCUCACGUUGCAGCCCGUGUCAGAUUCUGAUGAAUCUGCGAAUUCUGCUGUAUAACAC [U25C C32U C40G G53A U78A U80A], the self-cleavage was 0.06. UAACAGGGGGCCACAGCAGAAGCGCUCACGUUGCAGCCCCUGUCAGAUUCUGGGGAAUCUGCGAACUCUGCUGUAUAUCUC [U25C C32U U54G U66C] gave a self-cleavage of 0.18. UAACAGGGGGCCACAGCAGAAGCGCUCACGUUGCAGCCCCUGUCAGAUUCUGGUGAAUCCGCGAAUUCUGCUGUAUAUCUC [U25C C32U U60C] gave a self-cleavage of 0.15. Work on UAACAGGGGGCCACAGCAGAAGCGCUCACGUCGUAGCCCCUGUCAGAUUCCGGUGAAUCUGCGAAUUCUGCUGUAUAUCUC [U25C C34U U51C] yielded a self-cleavage of 0.11. UAACAGGGGGCCACAGCAGAAGCGCUCACGUCGCAGUCCCUGUCAGACUCUGGCGAAUUUGCGUAUUCUGCCGUAUAUCUC [U25C C37U U48C U54C C59U A64U U72C] gave a self-cleavage of 0.08.
